# PubChem BioAssay AID2546 (National Center for Advancing Translational Sciences (NCATS), 2010)
# Several values for one entry are separate records, joined by “and”; a condition that tells them apart may be missing. Equal values may be shown once. Out of some 310,000 compounds screened, about 11,000 (3.5%) were called active. This list was built around the results that the source calls inconclusive (neither active nor inactive); the mix of calls is not that of the screen. Calls come from the whole dose curve; as a rule, active = well fitted inhibition curve with a large enough effect; inconclusive = small, poorly fitted or top-dose-only effect, or effect the other way; inactive = flat fitted curve, though single readings scatter. Potencies of inconclusive entries are doubtful fits and often do not repeat.
# Test: VP16 counterscreen qHTS for inhibitors of ROR gamma transcriptional activity;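 note: Gal4-VP16 expression switched on by copper sulfate through the metallothionein promoter; nearly all actives have a fitted effect of over 50% in size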
# Settings: Drosophila S2 Gal4-VP16 UAS-luciferase, luminescence, 20 h; series mostly up to 53.6 µM
# % is set by controls: 0 for no effect and ±100 for the full control effect; potency is the fitted concentration of half-maximal effect; tags give direction and shape of the fitted curve.
Compound,Potency,"activity, negative = inhibition"
CCC1C(c2ccccc2)NC(c2ccccc2)CC1(O)c1ccc(F)cc1 (configuration not stated),"inconclusive: 10 µM [inhibitor, partial curve]",–
CCC(=NCCC(c1ccccc1)c1ccccc1)c1c(O)n(C)c(=O)n(C)c1=O,inactive,–
CCCOP(=O)(OCCC)C(Nc1ccc(C(C)C)cc1)c1ccc([N+](=O)[O-])cc1 (configuration not stated),"inconclusive: 31.6 µM [inhibitor, single point]",–
CCC(C=C[C@@H]1OC(=O)C=C[C@H]1C)=C[C@H](C)CC=CC(C)=C[C@@H](C)C(=O)[C@@H](C)[C@H](O)[C@@H](C)CC(C)=CC(=O)O,active: 1.26 µM,–
CCOc1ccc(C2CC(c3c(O)n(C)c(=O)n(C)c3=O)=NN2)cc1 (configuration not stated),"inconclusive: 22.4 µM [inhibitor, single point]",–
CC(C)c1cccc(C(C)C)c1OCCn1ccnc1,"inconclusive: 15.8 µM [inhibitor, single point]",–
C=C1[C@@H](O)C2C=CC[C@H](C)C(=O)[C@@](C)(O)C=C[C@@H](OC(C)=O)[C@@]23C(=O)N[C@H](Cc2ccccc2)[C@@H]3[C@@H]1C (some centres not stated),inactive,–
COc1ccc(CCNC(=O)C(=O)NCC2OCCN2S(=O)(=O)c2ccc(Cl)cc2)cc1 (configuration not stated),"inconclusive: 35.5 µM [inhibitor, single point]",–
CC1CCCC(C)N1/N=C/c1c[nH]c2ccc(Br)cc12 (configuration not stated),"inconclusive: 15.8 µM [inhibitor, single point]",–
O=c1[nH]c(=S)n(-c2ccc(Cl)cc2)c(O)c1C=Nc1ccc(N2CCOCC2)cc1,inactive,–
C=CCN1C(=O)/C(=C/c2cccs2)C(=O)NC1=S,"inconclusive: 35.5 µM [inhibitor, single point]",–
NC(Cc1ccc(Oc2cc(I)c(O)c(I)c2)c(I)c1)C(=O)O (configuration not stated),inactive,–
CC(C)(C)c1ccc(OC(=O)N2CCCCC2)cc1,"inconclusive: 8.91 µM [inhibitor, partial curve]",–
CC(C)(OO)c1ccccc1,"inconclusive: 35.5 µM [inhibitor, single point]",–
O=c1[nH]c2ccccc2n1C1CCN(CCCC(c2ccc(F)cc2)c2ccc(F)cc2)CC1,"inconclusive: 31.6 µM [inhibitor, single point] and inconclusive: 35.5 µM [inhibitor, single point]",–
CC#C[C@]1(O)CC[C@H]2C3C=C(C)C4=CC(=O)C=C[C@]4(C)[C@H]3[C@@H](O)C[C@@]21C (some centres not stated),inactive,–
CCCCc1ccc(NC2=NCCCS2)cc1,"inconclusive: 7.08 µM [activator, partial curve]",–
Brc1ccc2c(c1)C(OC1CN3CCC1CC3)c1ccccc1CS2 (configuration not stated),"inconclusive: 35.5 µM [inhibitor, single point]",–
COc1ccc(/C=C/c2cc(O)cc(O)c2)cc1,active: 3.55 µM,–
CC(C)C[C@H]1C(=O)N2CCC[C@H]2[C@]2(O)O[C@](NC(=O)[C@@H]3C=C4c5cccc6[nH]c(Br)c(c56)CC4N(C)C3)(C(C)C)C(=O)N12 (some centres not stated),"inconclusive: 35.5 µM [inhibitor, single point]",–
N#CC(C#N)=NNc1ccc([N+](=O)[O-])cc1,"inconclusive: 35.5 µM [inhibitor, single point]",–
CCSc1cc(C2C(C#N)=C(N)Oc3n[nH]c(C)c32)c(C)o1 (configuration not stated),"inconclusive: 35.5 µM [inhibitor, single point]",–
O=C1NC(=O)N(Cc2ccc(F)cc2)C(=O)/C1=C\C=C\c1ccco1,"inconclusive: 15.8 µM [inhibitor, single point]",–
CCCCC/C=C\C/C=C\C/C=C\C/C=C\CCCC(=O)O,"inconclusive: 35.5 µM [inhibitor, single point]",–

Compound,Potency,"activity, negative = inhibition"
O=[N+]([O-])c1ccc(NCc2ccc(Cl)cc2)c2ccncc12,active: 11.2 µM,–
COc1ccc(N2C(=O)/C(=C/c3ccc(OC)c(OC)c3)C(=O)NC2=S)cc1,"inconclusive: 22.4 µM [activator, single point]",–
COC(=O)CC1=C(C(=O)OC)C2(C(=O)Nc3c(C)cccc32)C(C#N)=C(N)O1 (configuration not stated),"inconclusive: 15.8 µM [inhibitor, single point]",–
COc1cccc2c1cc([N+](=O)[O-])c1c(C(=O)O)cc3c(c12)OCO3,"inconclusive: 1.26 µM [inhibitor, full curve] and inconclusive: 28.2 µM [inhibitor, partial curve]",–
CCCCCCCCn1sccc1=O,active: 0.631 µM,–
Cc1csc(=N)n1Cc1ccccc1,inactive,–
O=C1CCN(C(=O)CNC(=O)Cc2ccccc2)CC1,inactive,–
C[C@@H]1O[C@@H](O[C@H]2C[C@@H](O)[C@@]3(CO)[C@H]4[C@H](O)C[C@]5(C)[C@@H](C6=CC(=O)OC6)CC[C@]5(O)[C@H]4CC[C@@]3(O)C2)[C@@H](O)[C@H](O)[C@H]1O,inactive,–
O=c1[nH]c(=O)n(-c2ccc(Cl)cc2)c(O)c1C=NCCN1CCCCC1,inactive,–
Brc1ccccc1CNCCc1ccc2c(c1)OCO2,inactive,–
COc1ccccc1-n1c(O)c(/C=N/NC(=S)Nc2ccccc2)c(=O)[nH]c1=S,inactive,–
O=C(C1CC(c2ccccc2O)=NO1)N1CCC2(CC1)OCCO2 (configuration not stated),"inconclusive: 0.891 µM [inhibitor, full curve, poor fit]",–
O=C(/C=C/c1ccccc1)C1C(=O)c2ccccc2C1=O,active: 8.91 µM,–
CC(C)c1ccc(N2C(=O)NC(=O)/C(=C/C=C/c3ccco3)C2=O)cc1,active: 12.6 µM,–
C=CCc1c(C)nc(C)nc1N/N=C/c1ccc(N(C)C)cc1,"inconclusive: 35.5 µM [inhibitor, single point]",–
O=C(CCC1CCCC1)c1c(O)c2ccccc2oc1=O,"inconclusive: 35.5 µM [inhibitor, single point]",–
Cn1c(=O)oc2cc(NC(=O)CCl)ccc21,"inconclusive: 11.2 µM [inhibitor, partial curve]",–
COc1ccc(CCn2c(O)c(/C=N/N3CCCCC3)c(=O)[nH]c2=O)cc1OC,"inconclusive: 5.62 µM [activator, single point]",–
Cc1noc(C)c1C(=O)N1CCC[C@@]2(CCN(CC(C)C)C2)C1,inactive,–
Fc1cccc(F)c1CN1CCN(c2ccc(Cl)cc2)CC1,inactive,–
Cc1ccccc1C(=O)NNC(=S)NC(=O)COc1ccccc1,"inconclusive: 17.8 µM [inhibitor, single point]",–
CC(=O)OCC1=C[C@H]2[C@@H]3C(C)(C)[C@]3(OC(=O)Cc3ccccc3)C[C@@H](C)[C@]2(O)[C@@H]2C=C(C)C(=O)[C@@]2(O)C1,"inconclusive: 20 µM [activator, single point]",–
CCC(C)C1NC(=O)C(C(C)=O)=C1O (configuration not stated),"inconclusive: 25.1 µM [inhibitor, single point]",–
CC(C)NC(C)C(=O)C12CC3CC(CC(C3)C1)C2 (configuration not stated),inactive,–

Compound,Potency,"activity, negative = inhibition"
O=C(N/N=C1/CN2CCC1CC2)c1cc2ccccc2cc1O,active: 12.6 µM,–
COc1ccc(CN2C(=O)NC(=O)/C(=C/c3ccoc3)C2=O)cc1,inactive,–
COc1cc2c(cc1O)C(Cc1ccc(O)cc1)NCC2 (configuration not stated),"inconclusive: 28.2 µM [inhibitor, single point]",–
COc1cc2c(c3oc4cccc(O)c4c(=O)c13)C1C=CO[C@@H]1O2 (some centres not stated),active: 10 µM,–
CN(C)C(=O)Oc1ccc[n+](C)c1,"inconclusive: 5.62 µM [inhibitor, single point]",–
Clc1cccc(/C=N\Nc2nccs2)c1,"inconclusive: 35.5 µM [inhibitor, single point]",–
O=C(N/N=C\c1ccc(COc2ccc([N+](=O)[O-])cc2)o1)c1cccc(Cl)c1,active: 2.51 µM,–
CCCCNS(=O)(=O)c1ccc(OCC(=O)N2CCN(Cc3ccc4c(c3)OCO4)CC2)cc1,active: 5.62 µM,–
CCCCCSc1cc(O)c(C(CNC)C(C)C)cc1OC (configuration not stated),"inconclusive: 15.8 µM [inhibitor, single point]",–
Cn1cccc1/C=C1\C(=O)NC(=O)N(Cc2ccco2)C1=O,–,inactive: 4.33% [at 10 µM]
CC(=O)NCC(=O)Nc1ccc(Br)cc1C(=O)c1ccccc1,inactive,–
O=[N+]([O-])C(Br)(CO)CO,"inconclusive: 35.5 µM [inhibitor, single point]",–
O=C(OCC(=O)c1ccc([N+](=O)[O-])cc1)/C(=C/c1ccc(Cl)cc1)NC(=O)c1ccccc1,inactive,–
CC(C)(C)C(=O)NC1CCSC1=O (configuration not stated),inactive,–
C=C(Cl)CCl,inactive,–
Cc1nc2ccccc2c(=O)n1-c1cc([N+](=O)[O-])cc([N+](=O)[O-])c1,inactive,–
CC1CC[C@@]2(NC1)OC1CC3C4CC[C@@H]5CC(O)CC[C@@]5(C)C4CC[C@]3(C)C1C2C (some centres not stated),inactive,–
C=Cn1ccnc1P(=S)(c1nccn1C=C)C1CCCCC1,"inconclusive: 31.6 µM [inhibitor, single point]",–
O=c1c2ccccc2nc(-c2ccc(-c3ccccc3)cc2)n1-c1ccncc1,inactive,–
O=C1/C(=C\c2ccccc2)C[C@@]2(O)[C@H]3Cc4ccc(O)c5c4[C@@]2(CCN3CC2CC2)[C@@H]1O5,active: 12.6 µM,–
CCNCCNc1ccc([N+](=O)[O-])c2cccnc12,active: 20 µM,–
COc1ccc(-c2nn(CCC#N)cc2C(=O)NCc2ccccc2)cc1,inactive,–
CCCOP(=O)(OCCC)C(Nc1cccc(C(F)(F)F)c1)c1ccc(C)cc1 (configuration not stated),"inconclusive: 35.5 µM [inhibitor, single point]",–
O=C1C=CC(=O)C(Cl)=C1,"inconclusive: 35.5 µM [inhibitor, single point]",–
